Data published in the supplement of paper PMC13380429.

Tests used:
Conditions in all cases: 72 h
HepG2 [1] = experiment: relative viability EC50 (midpoint between 100% and the lowest measured viability); higher = less toxic
Vero E6 [2] = experiment: as above
Caco-2 [3] = experiment: cell viability relative to DMSO; higher = less toxic
HepG2 [4] = experiment: as above
Vero E6 [5] = experiment: as above
U2OS [6] = experiment: as above
Caco-2 [7] = experiment: drug sensitivity score (DSS) for viability; higher = more toxic; extreme values may be limits of the assay
HepG2 [8] = experiment: as above
Vero E6 [9] = experiment: as above
U2OS [10] = experiment: as above

COc1cc(N2CCN(C(C)=O)CC2)ccc1Nc1ncc(Cl)c(Nc2ccc(N3CCN(C(C)=O)CC3)cc2OC)n1 [KRCA-0008]
Conditions | drug sensitivity score | relative viability EC50 [nM]
Caco-2 [7] | 3.2 | –
HepG2 [1] | – | 1570
HepG2 [8] | 5.8 | –
U2OS [10] | 2.4 | –
Vero E6 [2] | – | > 10000
Vero E6 [9] | 0 | –

cell viability [%]
Conditions | 1 nM | 10 nM | 100 nM | 1000 nM | 10000 nM
Caco-2 [3] | 99.3 | 94.2 | 86.4 | 94.3 | 56.1
HepG2 [4] | 102 | 87.3 | 108 | 84.6 | 37.5
U2OS [6] | 93.7 | 95.7 | 95.8 | 96.9 | 61.4
Vero E6 [5] | 102 | 101 | 98.3 | 103 | 87.5
